Where a chain is given by its changes, count along the chain named. This is one part of the list.
B1: AGUAGGC (DNA:RNA)
RNA: GGGAGACCGGAAUUCAGAUUGUCCAGUAGGCUUAAAUCCCGUCGUAGCCACCA
DNA 1: CAATCTGAATTCCGGTCTCCC
DNA 2: TGGTGGCTACGACGGGATT
B2: CUUAUUA (DNA:RNA)
RNA: B1 RNA with A25C, G26U, G29U, G30U, C31A
DNA 1: CAATCTGAATTCCGGTCTCCC
DNA 2: TGGTGGCTACGACGGGATT
B3: CUAUCGU (DNA:RNA)
RNA: B1 RNA with A25C, G26U, U27A, A28U, G29C, C31U
DNA 1: CAATCTGAATTCCGGTCTCCC
DNA 2: TGGTGGCTACGACGGGATT
B4: GUGUCAA (DNA:RNA)
RNA: GGGAGACCGGAAUUCAGAUUGUCCGUGUCAAUUAAAUCCCGUCGUAGCCACCA
DNA 1: CAATCTGAATTCCGGTCTCCC
DNA 2: TGGTGGCTACGACGGGATT
B5: GGCACCA (DNA:RNA)
RNA: B4 RNA with U26G, G27C, U28A, A30C
DNA 1: CAATCTGAATTCCGGTCTCCC
DNA 2: TGGTGGCTACGACGGGATT
B6: AGUGUCC (DNA:RNA)
RNA: B1 RNA with A28G, G29U, G30C
DNA 1: CAATCTGAATTCCGGTCTCCC
DNA 2: TGGTGGCTACGACGGGATT
B7: ACUGUCU (DNA:RNA)
RNA: B1 RNA with G26C, A28G, G29U, G30C, C31U
DNA 1: CAATCTGAATTCCGGTCTCCC
DNA 2: TGGTGGCTACGACGGGATT
B8: CCUGGCU (DNA:RNA)
RNA: B1 RNA with A25C, G26C, A28G, G30C, C31U
DNA 1: CAATCTGAATTCCGGTCTCCC
DNA 2: TGGTGGCTACGACGGGATT
B9: GAAUGGG (DNA:RNA)
RNA: B1 RNA with A25G, G26A, U27A, A28U, C31G
DNA 1: CAATCTGAATTCCGGTCTCCC
DNA 2: TGGTGGCTACGACGGGATT

molecular target: T1, RBFOX1 RRM RbFoxmut (Fox-RRM*) (Homo sapiens, UniProt Q9NWB1 109-208, R118D;E147R;N151S;E152T); test: EMSA; HiTS-Eq, 1 nM pool, 10 min; buffer printed only for the single-RNA assays: 10 mM Tris pH 7.5, 150 mM NaCl, 3.4 mM EDTA, 0.001% NP-40, 30 C; conditions: tags: His6 N-terminal (pET28a); label: 5' 32P
T1 sequence: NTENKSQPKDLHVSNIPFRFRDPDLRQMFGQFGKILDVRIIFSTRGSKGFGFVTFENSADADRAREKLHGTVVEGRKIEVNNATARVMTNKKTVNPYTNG
Outline: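 Purified RbFox RRM (wild type or mutant) was equilibrated for 10 min in 50 µL with 1 nM of a 5′-radiolabelled pool of RNA with 7 randomized nucleotides, its flanks annealed to DNA oligonucleotides, across increasing protein concentrations. Free RNA was separated by 8% native PAGE, excised, reverse-transcribed, PCR-barcoded and sequenced on an Illumina HiSeq 2500. Relative association constants came from read-count changes of each variant against the control reaction, normalised to the cognate motif.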

Binder	binding signal
B1	0.097 KA relative to UGCAUGU
B2	0.144 KA relative to UGCAUGU
B3	0.11 KA relative to UGCAUGU
B4	0.114 KA relative to UGCAUGU
B5	0.0788 KA relative to UGCAUGU
B6	0.0744 KA relative to UGCAUGU
B7	0.0844 KA relative to UGCAUGU
B8	0.073 KA relative to UGCAUGU
B9	0.21 KA relative to UGCAUGU

— article PMC9911399, “Two distinct binding modes provide the RNA-binding protein RbFox with extraordinary sequence specificity”
